# Source: PubChem BioAssay AID624417 (National Center for Advancing Translational Sciences (NCATS), 2012)
# Screen size: about 410,000 compounds; about 6,400 (1.6%) were called active. Inconclusive results, whose numbers are uncertain, are shown with a selection of clear calls. The call rests on the fitted dose curve; in most records, active means well fitted inhibition curve with a large enough effect; inconclusive means small, poorly fitted or top-dose-only effect; inactive means no such curve, though single readings can be large or run the other way. No potency is given beside an inconclusive call; the fits are too rough.
# Target: Glucagon-like peptide 1 receptor (Homo sapiens) (UniProt P43220)
# Experiment: qHTS of GLP-1 Receptor Inverse Agonists (Inhibition Mode); further: nearly all actives have a fitted effect of over 55% in size
# Settings: HEK293 GLP-1R CRE-luciferase, luminescence, 24 h, GLP-1R form is constitutively active; activity change, negative = inhibition: at 38.3 µM (top of the series) unless noted
# How it was run: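 HEK293 cells stably co-expressing a cAMP-responsive luciferase reporter and constitutively active GLP-1R were seeded, incubated 12 h, then exposed to compounds for 24 h at 37 C. Luminescence was read 12 min after detection reagent; inverse agonists lower signal.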
# On the % scale 0 is the no-effect control and ±100 the full control effect; potency means the concentration at half of the fitted maximal effect; tags describe the fitted curve by direction and shape.
# Sequence of UniProt P43220 (P43220 whole entry, looked up): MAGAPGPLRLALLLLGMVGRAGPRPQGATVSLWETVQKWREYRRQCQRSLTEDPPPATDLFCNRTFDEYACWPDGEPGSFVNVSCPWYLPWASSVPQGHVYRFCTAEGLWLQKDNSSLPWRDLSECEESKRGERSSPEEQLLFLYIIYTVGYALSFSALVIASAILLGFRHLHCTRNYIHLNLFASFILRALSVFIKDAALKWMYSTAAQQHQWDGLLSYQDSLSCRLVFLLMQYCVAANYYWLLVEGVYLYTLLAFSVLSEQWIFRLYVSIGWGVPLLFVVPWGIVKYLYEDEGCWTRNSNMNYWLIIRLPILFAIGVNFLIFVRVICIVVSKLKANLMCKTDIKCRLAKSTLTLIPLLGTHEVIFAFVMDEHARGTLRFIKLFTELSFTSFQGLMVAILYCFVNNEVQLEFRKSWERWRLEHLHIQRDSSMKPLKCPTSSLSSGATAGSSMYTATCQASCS
SMILES,Potency,"activity change, negative = inhibition"
COCCNc1nc(NCc2ccc(NC(C)=O)cc2)c2sc(-c3ccccc3)cc2n1,"inconclusive [inhibitor, single point]",
Cc1cccc(C)c1OCC(O)CN1CCCCC1 (stereo not drawn),,inactive: -1.02%
CC(Oc1ccc(Cl)cc1)C(=O)N1CCCc2ccccc21 (stereo not drawn),"inconclusive [inhibitor, partial curve, poor fit]",
O=C(Nc1ccccc1C(F)(F)F)N1CCN(C(c2ccccc2)c2ccccc2)CC1,"inconclusive [inhibitor, partial curve]",
O=C1/C(=C/c2ccccc2[N+](=O)[O-])COc2ccccc21,"inconclusive [inhibitor, single point]",
O=C(NCc1ccccc1)C(c1ccco1)N1CCN(c2ccccc2F)CC1 (stereo not drawn),"inconclusive [inhibitor, partial curve, poor fit]",
CN(C)CCC1Sc2ccccc2Oc2ccccc21 (stereo not drawn),"inconclusive [inhibitor, single point]",
Cc1ccccc1-c1cnc(C(O)c2ccccc2)[nH]1 (stereo not drawn),,inactive: 10.1%
O=C(Nc1sc2c(c1C(=O)NCC1CCCO1)CCC2)c1cc(=O)c2ccccc2o1 (stereo not drawn),,inactive: 9.4%
Cc1nc(-c2cc(C#N)c(Sc3ccc(Cl)cc3Cl)nc2C)cs1,"inconclusive [inhibitor, single point]",
CCc1cc(C(=O)Nc2cnn(Cc3ccccc3C)c2)no1,"inconclusive [inhibitor, single point]",
Cc1ccsc1C(=O)NCc1ccc(Cl)cc1,"inconclusive [inhibitor, single point]",
CC1CC(C)CN(C(=O)/C=C/c2ccc([N+](=O)[O-])s2)C1 (stereo not drawn),,inactive: -14.6%
COCCn1c(SCC(=O)Nc2ccc3c(c2)OCCO3)nc2c(c1=O)SC(C)C2 (stereo not drawn),,inactive: 0.589%
CCc1n[nH]c2c1C(=O)CC(C)(C)C2,,inactive: 17.3%
S=c1[nH]c(-c2ccccc2)cn1/N=C/c1ccc(Br)cc1,"inconclusive [inhibitor, partial curve, poor fit]",
O=C1NC[C@H](Cc2ccccc2)N(C[C@H]2CCCN2C[C@H](Cc2ccc(O)cc2)N2C[C@H](Cc3ccc(O)cc3)N(CC3CCCCCC3)C(=O)C2=O)C1=O,,inactive: 6.86%
c1ccc(OCCOCCOc2ccccc2)cc1,"inconclusive [inhibitor, single point]",
COc1ccc(Cn2ccc3nc(C)c(C(=O)NCc4ccc(F)cc4)cc3c2=O)cc1,"inconclusive [inhibitor, full curve, poor fit]",
CCOC(=O)NC(c1cccc(Cl)c1)C1CCCCCC1=O (stereo not drawn),"inconclusive [inhibitor, partial curve]",
O=C(NCCC1=CCCCC1)C(=O)NCC(c1ccco1)N1CCN(c2ccc(F)cc2)CC1 (stereo not drawn),,inactive: -8.29%
Cc1ccc2c(c1)nnn2C1CCN(S(=O)(=O)c2ccc(C(=O)O)cc2)CC1,,inactive: 30.1%

SMILES,Potency,"activity change, negative = inhibition"
Fc1ccc(-c2noc3ncnc(NCCCN4CCN(c5ccccc5)CC4)c23)cc1,"inconclusive [inhibitor, partial curve, poor fit]",
O=C(Oc1c(Br)cc(C(=S)N2CCOCC2)cc1Br)c1ccc(Cl)cc1,active: 10 µM,
COc1ccc(CCCC(=O)NCc2ccccc2)cc1C,"inconclusive [inhibitor, full curve, poor fit]",
C(=C\c1ccco1)/C1=NN(c2ccccc2)C(c2ccco2)C1 (stereo not drawn),,inactive: -2.33%
Cc1nn(-c2ccc([N+](=O)[O-])cc2)c2c1C(c1ccc(OC(F)F)cc1)N1C(=N2)C(=O)Nc2ccccc21 (stereo not drawn),"inconclusive [inhibitor, partial curve, poor fit]",
COc1ccc(NS(=O)(=O)c2ccc3[nH]c4c(c3c2)CCCC4)cc1Cl,"inconclusive [inhibitor, single point]",
OCCc1ccc(-c2ccc(Cl)cc2)o1,,inactive: 1.45%
CCc1ccc2oc(-c3cccc(N)c3)nc2c1,"inconclusive [inhibitor, single point]",
CCOc1ccc(NC(=O)CSc2nc(N)c(-c3ccccc3)c(=O)[nH]2)cc1,,inactive: 2.9%
CN(C)C(CNC(=O)c1cc(S(=O)(=O)N(C)c2ccc(F)cc2)ccc1Cl)c1cccs1 (stereo not drawn),"inconclusive [inhibitor, single point]",
CCCCCn1c(-c2ccc(OC)c(OC)c2)nc2ccccc21,"inconclusive [inhibitor, partial curve, poor fit]",
CN(C)S(=O)(=O)c1cccc(N=c2scc(-c3ccc4c(c3)NC(=O)CO4)n2CC2CCCO2)c1 (stereo not drawn),"inconclusive [inhibitor, single point]",
O=C(NCCc1ccccc1)c1cc(Sc2cccc(Cl)c2)nc2ccccc12,,inactive: 58.5%
Cc1ccc(/C=C/c2onc(C)c2S(=O)(=O)N2CCC(C(=O)NCC(C)c3ccccc3)CC2)cc1 (stereo not drawn),,inactive: -4.55%
O=C(CSc1nnc(-c2ccccn2)n1Cc1ccccc1)N1CCCC1,"inconclusive [inhibitor, partial curve, poor fit]",
CCN(CC)S(=O)(=O)c1ccc(NC(=O)C2COc3ccccc3O2)cc1 (stereo not drawn),"inconclusive [inhibitor, partial curve, poor fit]",
O=C(Nc1ccc(S(=O)(=O)N2CCCC2)cc1)c1ccc([N+](=O)[O-])o1,"inconclusive [inhibitor, single point]",
Cc1cc(C)cc(-n2ncc3c2CCCC3NC(=O)c2cc(C)[nH]n2)c1 (stereo not drawn),"inconclusive [inhibitor, partial curve, poor fit]",
Cc1nc2ccn(Cc3cccs3)c(=O)c2cc1C(=O)Nc1ccccc1,"inconclusive [inhibitor, partial curve, poor fit]",
O=C(Nc1ccc2c(c1)OCCO2)C1CCCN(S(=O)(=O)c2cccs2)C1 (stereo not drawn),"inconclusive [inhibitor, partial curve]",
Cc1ccc(C)n1-c1nnc(N2CCCC(C(=O)NCc3cccc(Cl)c3)C2)s1 (stereo not drawn),"inconclusive [inhibitor, single point]",
